# Reference: the supplement of paper PMC8728848
# Some of the results follow.
# B1: ABA (Agaricus bisporus), Q00022 (protein)
# chain: MTYTISIRVYQTTPKGFFRPVERTNWKYANGGTWDEVRGEYVLTMGGSGTSGSLRFVSSDTDESFVATFGVHNYKRWCDIVTNLTNEQTALVINQEYYGVPIRDQARENQLTSYNVANAKGRRFAIEYTVTEGDNLKANLIIG
# Tests used:
# Assay in all cases: glycan array binding signal (z-score within array); higher = stronger binding
# Settings in all cases: glycan notation: IUPAC condensed, linker removed
# [1] = target: Neu5Ac(a2-6)Gal(b1-4)GlcNAc(b1-3)Gal(b1-4)GlcNAc(b1-6)[Gal(b1-3)]GalNAc
# Method in brief: (§1)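 Negative Z-scores can be read as non-binding. The Z-score is calculated within each array and then averaged across arrays of one protein sequence at different concentrations or buffers and across linkers. Arrays, 3228 in all, were curated from the Consortium for Functional Glycomics database and kept only where the protein sequence was available.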
# [2] = target: Neu5Ac(a2-6)Gal(b1-4)GlcNAc(b1-3)Gal(b1-4)[Fuc(a1-3)]GlcNAc(b1-3)Gal(b1-4)[Fuc(a1-3)]GlcNAc
# Method in brief: as §1
# [3] = target: Neu5Ac(a2-6)Gal(b1-4)GlcNAc(b1-3)GalNAc
# Method in brief: as §1
# [4] = target: Neu5Ac(a2-6)Gal(b1-4)GlcNAc(b1-3)[Neu5Ac(a2-6)Gal(b1-4)GlcNAc(b1-6)]GalNAc
# Method in brief: as §1
# [5] = target: Neu5Ac(a2-6)Gal(b1-4)GlcNAc(b1-6)GalNAc
# Method in brief: as §1
# [6] = target: Neu5Ac(a2-6)Gal(b1-4)GlcNAc(b1-6)[Gal(b1-3)GlcNAc(b1-3)]Gal(b1-4)Glc
# Method in brief: as §1
# [7] = target: Neu5Ac(a2-6)Gal(b1-4)GlcNAc(b1-6)[Gal(b1-3)]GalNAc
# Method in brief: as §1
# [8] = target: Neu5Ac(a2-6)Gal(b1-4)GlcNAc6S
# Method in brief: as §1
# [9] = target: Neu5Ac(a2-6)GalNAc
# Method in brief: as §1
# [10] = target: Neu5Ac(a2-6)GalNAc(b1-4)GlcNAc
# Method in brief: as §1
# [11] = target: Neu5Ac(a2-6)GalNAc(b1-4)GlcNAc6S
# Method in brief: as §1
# [12] = target: Neu5Ac(a2-6)GlcNAc(b1-4)GlcNAc
# Method in brief: as §1
# [13] = target: Neu5Ac(a2-6)GlcNAc(b1-4)GlcNAc(b1-4)GlcNAc
# Method in brief: as §1
# [14] = target: Neu5Ac(a2-8)Neu5Ac
# Method in brief: as §1
# [15] = target: Neu5Ac(a2-8)Neu5Ac(a2-3)Gal(b1-3)GalNAc(b1-4)[Neu5Ac(a2-3)]Gal(b1-4)Glc
# Method in brief: as §1
# [16] = target: Neu5Ac(a2-8)Neu5Ac(a2-3)Gal(b1-3)GalNAc(b1-4)[Neu5Ac(a2-8)Neu5Ac(a2-3)]Gal(b1-4)Glc
# Method in brief: as §1
# [17] = target: Neu5Ac(a2-8)Neu5Ac(a2-3)Gal(b1-4)Glc
# Method in brief: as §1
# [18] = target: Neu5Ac(a2-8)Neu5Ac(a2-3)Gal(b1-4)GlcNAc
# Method in brief: as §1
# [19] = target: Neu5Ac(a2-8)Neu5Ac(a2-3)[Gal(b1-3)GalNAc(b1-4)]Gal(b1-4)Glc
# Method in brief: as §1
# [20] = target: Neu5Ac(a2-8)Neu5Ac(a2-3)[GalNAc(b1-4)]Gal(b1-4)Glc
# Method in brief: as §1
# [21] = target: Neu5Ac(a2-8)Neu5Ac(a2-8)Neu5Ac
# Method in brief: as §1
# [22] = target: Neu5Ac(a2-8)Neu5Ac(a2-8)Neu5Ac(a2-3)Gal(b1-4)Glc
# Method in brief: as §1
# [23] = target: Neu5Ac(a2-8)Neu5Ac(a2-8)Neu5Ac(a2-3)[Gal(b1-3)GalNAc(b1-4)]Gal(b1-4)Glc
# Method in brief: as §1
# [24] = target: Neu5Ac(a2-8)Neu5Ac(a2-8)Neu5Ac(a2-3)[GalNAc(b1-4)]Gal(b1-4)Glc
# Method in brief: as §1
# [25] = target: Neu5Ac(a2-8)Neu5Ac(a2-8)Neu5Ac(a2-8)Neu5Ac(a2-3)[GalNAc(b1-4)]Gal(b1-4)Glc
# Method in brief: as §1
# [26] = target: Neu5Ac(a2-8)Neu5Gc(a2-3)Gal(b1-4)GlcNAc
# Method in brief: as §1
# [27] = target: Neu5Ac(b1-6)GalNAc
# Method in brief: as §1
# [28] = target: Neu5Ac(b2-6)Gal(b1-4)GlcNAc
# Method in brief: as §1
# [29] = target: Neu5Ac(b2-6)GalNAc
# Method in brief: as §1
# [30] = target: Neu5Ac9Ac(a2-3)Gal(b1-3)GlcNAc
# Method in brief: as §1
# [31] = target: Neu5Ac9Ac(a2-3)Gal(b1-4)GlcNAc
# Method in brief: as §1
# [32] = target: Neu5Ac9Ac(a2-6)Gal(b1-4)GlcNAc
# Method in brief: as §1
# [33] = target: Neu5Gc(a2-3)Gal(b1-3)GlcNAc
# Method in brief: as §1
# [34] = target: Neu5Gc(a2-3)Gal(b1-3)[Fuc(a1-4)]GlcNAc
# Method in brief: as §1
# [35] = target: Neu5Gc(a2-3)Gal(b1-4)Glc
# Method in brief: as §1
# [36] = target: Neu5Gc(a2-3)Gal(b1-4)GlcNAc
# Method in brief: as §1
# [37] = target: Neu5Gc(a2-3)Gal(b1-4)GlcNAc(b1-3)Gal(b1-4)GlcNAc(b1-2)Man(a1-3)[Neu5Gc(a2-3)Gal(b1-4)GlcNAc(b1-3)Gal(b1-4)GlcNAc(b1-2)Man(a1-6)]Man(b1-4)GlcNAc(b1-4)GlcNAc
# Method in brief: as §1
# [38] = target: Neu5Gc(a2-3)Gal(b1-4)[Fuc(a1-3)]GlcNAc
# Method in brief: as §1
# [39] = target: Neu5Gc(a2-6)Gal(b1-4)GlcNAc
# Method in brief: as §1
# [40] = target: Neu5Gc(a2-6)GalNAc
# Method in brief: as §1
# [41] = target: Neu5Gc(a2-8)Neu5Ac(a2-3)Gal(b1-4)GlcNAc
# Method in brief: as §1
# [42] = target: Neu5Gc(a2-8)Neu5Gc(a2-3)Gal(b1-4)GlcNAc
# Method in brief: as §1
# [43] = target: Neu5Gc(a2-8)Neu5Gc(a2-3)Gal(b1-4)GlcNAc(b1-3)Gal(b1-4)GlcNAc
# Method in brief: as §1
# [44] = target: Neu5Gc(a2-8)Neu5Gc(a2-6)Gal(b1-4)GlcNAc
# Method in brief: as §1
# [45] = target: Neu5Gc(b2-6)Gal(b1-4)GlcNAc
# Method in brief: as §1
binder,measurement,setting,value
B1,glycan array binding signal (z-score),[1],0.324
same,glycan array binding signal (z-score),[2],-0.241
same,glycan array binding signal (z-score),[3],-0.181
same,glycan array binding signal (z-score),[4],-0.251
same,glycan array binding signal (z-score),[5],-0.068
same,glycan array binding signal (z-score),[6],-0.255
same,glycan array binding signal (z-score),[7],-0.075
same,glycan array binding signal (z-score),[8],-0.227
same,glycan array binding signal (z-score),[9],-0.271
same,glycan array binding signal (z-score),[10],-0.248
same,glycan array binding signal (z-score),[11],-0.274
same,glycan array binding signal (z-score),[12],-0.229
same,glycan array binding signal (z-score),[13],-0.257
same,glycan array binding signal (z-score),[14],-0.258
same,glycan array binding signal (z-score),[15],-0.282
same,glycan array binding signal (z-score),[16],-0.281
same,glycan array binding signal (z-score),[17],-0.267
same,glycan array binding signal (z-score),[18],-0.25
same,glycan array binding signal (z-score),[19],-0.223
same,glycan array binding signal (z-score),[20],-0.201
same,glycan array binding signal (z-score),[21],-0.247
same,glycan array binding signal (z-score),[22],-0.229
same,glycan array binding signal (z-score),[23],-0.245
same,glycan array binding signal (z-score),[24],-0.025
same,glycan array binding signal (z-score),[25],-0.206
same,glycan array binding signal (z-score),[26],-0.244
same,glycan array binding signal (z-score),[27],-0.191
same,glycan array binding signal (z-score),[28],-0.227
same,glycan array binding signal (z-score),[29],-0.29
same,glycan array binding signal (z-score),[30],-0.24
same,glycan array binding signal (z-score),[31],0.53
same,glycan array binding signal (z-score),[32],-0.257
same,glycan array binding signal (z-score),[33],-0.212
same,glycan array binding signal (z-score),[34],-0.238
same,glycan array binding signal (z-score),[35],-0.232
same,glycan array binding signal (z-score),[36],-0.206
same,glycan array binding signal (z-score),[37],-0.152
same,glycan array binding signal (z-score),[38],-0.298
same,glycan array binding signal (z-score),[39],-0.229
same,glycan array binding signal (z-score),[40],-0.224
same,glycan array binding signal (z-score),[41],-0.228
same,glycan array binding signal (z-score),[42],-0.284
same,glycan array binding signal (z-score),[43],-0.226
same,glycan array binding signal (z-score),[44],-0.213
same,glycan array binding signal (z-score),[45],-0.256
